# Source: paper PMC4336329 (PLoS ONE, 2015)
# About 2,200 (0.71%) of roughly 310,000 compounds showed an effect of 50% or more. Effects have a minus sign here. Some of the results follow.
# Target: human ether-à-go-go-related gene (hERG) potassium channel (human, UniProt Q12809)
# Test: primary screen, population patch clamp on CHO cells stably expressing hERG
# Chain of human ether-à-go-go-related gene (hERG) potassium channel (Q12809 whole entry, looked up): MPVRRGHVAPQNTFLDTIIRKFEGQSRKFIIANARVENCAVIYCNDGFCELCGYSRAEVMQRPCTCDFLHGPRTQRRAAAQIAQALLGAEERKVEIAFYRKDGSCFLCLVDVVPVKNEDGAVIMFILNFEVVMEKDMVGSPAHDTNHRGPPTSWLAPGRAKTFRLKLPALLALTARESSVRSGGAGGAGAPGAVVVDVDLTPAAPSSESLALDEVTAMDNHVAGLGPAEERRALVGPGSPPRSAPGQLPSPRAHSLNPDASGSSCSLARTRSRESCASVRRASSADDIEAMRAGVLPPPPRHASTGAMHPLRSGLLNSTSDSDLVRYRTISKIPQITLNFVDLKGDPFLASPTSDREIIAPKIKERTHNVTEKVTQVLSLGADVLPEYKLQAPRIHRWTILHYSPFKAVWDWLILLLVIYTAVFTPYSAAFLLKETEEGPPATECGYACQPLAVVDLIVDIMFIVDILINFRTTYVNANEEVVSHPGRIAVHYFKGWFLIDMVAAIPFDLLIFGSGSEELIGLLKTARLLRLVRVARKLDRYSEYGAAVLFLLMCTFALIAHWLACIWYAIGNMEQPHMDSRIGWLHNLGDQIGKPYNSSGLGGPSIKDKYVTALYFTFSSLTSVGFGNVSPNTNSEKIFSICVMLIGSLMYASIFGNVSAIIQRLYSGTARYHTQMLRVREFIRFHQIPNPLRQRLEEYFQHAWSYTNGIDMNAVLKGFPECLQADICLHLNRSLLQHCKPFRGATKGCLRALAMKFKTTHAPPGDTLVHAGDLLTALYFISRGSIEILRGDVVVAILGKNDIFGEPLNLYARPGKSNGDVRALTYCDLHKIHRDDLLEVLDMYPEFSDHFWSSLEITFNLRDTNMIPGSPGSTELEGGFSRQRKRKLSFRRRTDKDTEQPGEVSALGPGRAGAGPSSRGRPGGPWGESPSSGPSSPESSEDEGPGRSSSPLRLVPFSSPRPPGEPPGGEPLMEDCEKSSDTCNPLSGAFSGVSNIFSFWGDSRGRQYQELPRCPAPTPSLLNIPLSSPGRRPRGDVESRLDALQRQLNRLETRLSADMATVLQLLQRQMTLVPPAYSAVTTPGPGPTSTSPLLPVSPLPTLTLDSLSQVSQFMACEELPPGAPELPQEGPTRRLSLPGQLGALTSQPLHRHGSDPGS
row,Structure (SMILES),"hERG current change (%, negative = inhibition) at 1uM"
1,CC1CCN(C(=O)COc2coc(CN3CCc4ccccc43)cc2=O)CC1,-10.8%
2,COc1ccc(CCNC(=O)c2ccccc2Cl)cc1OC,7.87%
3,COc1ccc(S(=O)(=O)N2CCCC2CNC(=O)c2cccc(OC)c2)cc1 (stereo not shown),5.46%
4,Cc1cccc(Cn2nc(C)cc2NC(=O)CCCn2ccc([N+](=O)[O-])n2)c1,-2.16%
5,Cc1ccc2nc(/N=C(\N)NC(=O)N3c4ccccc4Sc4ccccc43)nc(C)c2c1,10.6%
6,Cc1ccc(C2/C(=C(/O)c3ccc(Br)cc3)C(=O)C(=O)N2Cc2ccco2)o1 (stereo not shown),16.2%
7,CCCCCCCC(=O)NNC(=O)c1c(O)c2ccccc2[nH]c1=O,9.8%
8,COc1ccc(C(CC(=O)N2CCC3(CC2)OCCO3)NS(=O)(=O)c2ccc(OC)cc2)cc1 (stereo not shown),9.32%
9,Clc1ccc(CN2CCN(c3ccccc3)CC2)cn1,9.39%
10,Cc1cccc(-n2c(=S)[nH]c3ccccc3c2=O)n1,8.41%
11,CN(C)S(=O)(=O)c1ccc(NC=O)cc1,10.6%
12,C=CCN1c2ccccc2[C@]23C[C@@H](C(=O)OC)N(C(=O)c4cccs4)C2=NC(C(=O)OC)=C(C(=O)OC)[C@H]13,6.71%
13,Cc1c(C)n(CC(O)CN(CCO)CCO)c2ccccc12.Cl (stereo not shown),18.3%
14,Cc1oc(-c2ccc3ccccc3c2)nc1CN(C)C(C)c1ccncn1 (stereo not shown),-11%
15,O=C(N=Nc1c(O)[nH]c2ccc(F)cc12)c1ccc(NS(=O)(=O)c2cccs2)cc1,12.4%
16,Cc1ccc(-c2nc(CS(=O)CC(=O)NCCN3CCOCC3)c(C)o2)cc1 (stereo not shown),12%
17,CC(C)C[C@H](NC(=O)N1CCn2c1nc1ccccc12)C(=O)NCCc1ccccc1,13.6%
18,COc1cc2c(c(OC)c1OC)-c1ccc(NC(=O)c3ccccc3)c(=O)cc1[C@@H](NC(C)=O)CC2,3.22%
19,Cc1ccc(S(=O)(=O)N2CCN(C(=O)c3c(-c4ccccc4)noc3C)CC2)cc1,6.23%
20,CCN1C(=O)CC(c2ccccc2)CC1=O,9.44%
21,Cc1cccc(C)c1CC(=O)N1CCOCC1,12.3%
22,O=c1cc(O)nc[nH]1,7.69%

row,Structure (SMILES),"hERG current change (%, negative = inhibition) at 1uM"
1,CCN(CC)CCN(C(=O)/C=C/c1cccs1)c1nc2ccc(Cl)cc2s1.Cl,11.4%
2,CN(C)C(=S)Nc1ccc2c(c1)OCO2,12.9%
3,Cc1ccc(-c2cc3c(nn2)-c2ccccc2C3=O)cc1,7.14%
4,O=C(NN1C(=O)c2ccccc2NC1c1ccccn1)c1ccc([N+](=O)[O-])cc1 (stereo not shown),1.45%
5,Cc1[nH]n(-c2ccccc2)c(=O)c1C=Nc1cccc2cccnc12,-10.3%
6,CCc1ccccc1NC1c2ccccc2C(=O)N1c1cccnc1 (stereo not shown),5.29%
7,CC(C)C[C@H](NC(=O)c1nc[nH]c1C(=O)N[C@@H](CC(C)C)C(=O)OCc1ccccc1)C(=O)OCc1ccccc1,9.56%
8,CC(C)(C)S(=O)(=O)c1ccccc1-c1noc(-c2ccccc2)c1C(N)=O,13.8%
9,CCCN(CC1CC1)C(=S)Nc1ccc(Oc2ccccc2)cc1,2.21%
10,O=S(=O)(c1ccccc1)N(CC(O)CN1CCCC1)c1ccccc1 (stereo not shown),3.65%
11,O=C(COc1cccc2cccnc12)NCc1cccs1,17.7%
12,CC(C)[C@H](NC(=O)c1ccccc1)C(=O)OCc1nc2scc(-c3ccccc3)c2c(=O)[nH]1,3.94%
13,COc1ccc(Nc2cc(C(=O)NCCCN3CCN(C)CC3)c3ccccc3n2)c(OC)c1,11.8%
14,CCOc1ccc(CN2CCNC(=O)C2CC(=O)NCCc2cnccn2)cc1 (stereo not shown),6.33%
15,c1cnn(-c2nc(N3CCOCC3)nc(N3CCOCC3)n2)c1,7.43%
16,Cc1oc(-c2ccc(Cl)cc2)nc1CN1CCC(C(=O)NCCCN2CCCC(C)C2)CC1 (stereo not shown),10.5%
17,O=C(Nc1nc2ccccc2[nH]1)Nc1ccccc1F,15.4%
18,CCc1ccc(-n2c(SCC(=O)N3Cc4ccccc4CC3C(=O)O)nnc2-c2ccncc2)cc1 (stereo not shown),9.53%
19,O=C(CCc1ccccc1)N=C1SC2CS(=O)(=O)CC2N1c1cccc(F)c1 (stereo not shown),-2.69%
20,Cc1ccc(SCC(=O)Nc2ccc(-c3nnc(-c4ccco4)o3)cc2)cc1,9.25%
21,N#C/C(=C/c1ccccc1[N+](=O)[O-])C(=O)NCc1ccco1,-3.2%
